# “And” between values parts separate entries of the source, which are not always exact repeats. Equal values may be shown once. The list shows a part of the results. These are further read-outs of the screen, such as a control signal, another cell line or another target. No call is given for them. Compounds called inactive in the main read-out are mostly missing here. Words in brackets tell the shape of the fitted curve; partial curves, single points and poor fits give uncertain potencies.
# Molecular target: Histamine N-methyltransferase (Homo sapiens) (UniProt P50135)
# Test: Confirmatory Screen for Target Class Profiling of Small Molecule Inhibitors of Methyltransferases (AID 1745852);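 also: inhibitor potency for blocking SAH production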
# Details: MTase-Glo luminescence, SAH detection, recombinant enzyme; measured here: HNMT inhibition potency
# Tags tell the direction and shape of the fitted curve.
# Chain of UniProt P50135 (P50135 whole entry, looked up): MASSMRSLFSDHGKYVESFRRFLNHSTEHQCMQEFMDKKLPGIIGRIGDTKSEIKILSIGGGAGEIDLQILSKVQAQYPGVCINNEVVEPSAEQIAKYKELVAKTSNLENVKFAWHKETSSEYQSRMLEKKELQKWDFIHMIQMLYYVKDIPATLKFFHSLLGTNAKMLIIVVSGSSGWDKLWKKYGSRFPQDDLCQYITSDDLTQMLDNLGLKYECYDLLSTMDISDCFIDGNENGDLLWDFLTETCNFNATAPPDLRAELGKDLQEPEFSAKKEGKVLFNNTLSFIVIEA
row,SMILES,IC50
1,CN(C)CCOC(C)(c1ccccc1)c1ccc(Cl)cc1 (configuration not stated),"19.2 µM [falling, partial curve]"
2,O=C(CCC[C@@H]1[C@H]2CCCN3CCC[C@@H](CN1Cc1ccccc1)[C@@H]23)Nc1cccnc1,"24.1 µM [falling, single point]"
3,COC(=O)C1=C2Nc3ccccc3C23CCN2CCCC(C(C)O)(C1)C23 (configuration not stated),"14.9 µM [falling, partial curve]"
4,O=C(CCCc1nnc2n3nc(-c4ccccc4)nc3c3ccccc3n12)NCCN1CCCC1,"4.82 µM [falling, full curve]"
5,O=C(Cn1ccc2cc(S(=O)(=O)N3CCCCC3)ccc21)NCCCN1CCCCC1,"17.1 µM [falling, partial curve]"
6,Cc1cnc(CCNC(=O)Nc2ccc3c(c2)OCCO3)n1C1CCC1,"15.2 µM [falling, partial curve]"
7,CCN(CC)CCCCNc1ncc2cc(-c3c(Cl)cccc3Cl)c(NC(=O)NC(C)(C)C)nc2n1,"17.1 µM [falling, partial curve] and 19.3 µM [falling, partial curve]"
8,O=C(O)Cn1nnc(-c2ccc(CN(CCCCOc3ccc(CN4CCCC4)cc3)CCc3ccccc3)cc2)n1,"12.1 µM [falling, partial curve]"
9,CCN(CC)CCNC(=O)CCc1nnc2n(CCc3ccccc3)c(=O)c3ccccc3n12,"21.5 µM [falling, partial curve]"
10,COc1cccc2c1OCCCN(c1cc(C3CC(O)C3)nc(N)n1)C2 (configuration not stated),"19.2 µM [falling, partial curve]"
11,c1ccc(CO[C@H]2COCCN(c3nc4ccccc4o3)C2)cc1,"24.8 µM [falling, partial curve]"
12,CCCCNC(=O)c1cccc(-c2cc(N3CCN(C)CC3)nc(N)n2)c1,"6.07 µM [falling, partial curve]"
